Assay results from US20220184120A1 (MINERVA BIOTECHNOLOGIES, published 2022).

What was measured:
Assay in all cases: ELISA (FIG. 8)
[1] = molecular target: T1, PSMGFR peptide (Primary Sequence of the MUC1 Growth Factor Receptor)
T1 construct: synthetic peptide immobilised on ELISA plates; also called MUC1* peptide; MUC1* extra cellular domain peptide
T1 peptide: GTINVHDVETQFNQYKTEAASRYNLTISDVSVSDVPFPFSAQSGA
Text: (§1) The huMN-E6 scFv-Fc bound to the PSMGFR peptide and to the PSMGFR N−10 peptide but not to the PSMGFR C−10 peptide. The parent MN-E6 antibody and the humanized MN-E6 require the C-terminal 10 amino acids of PSMGFR for binding.

[2] = molecular target: T2, N-10 peptide (PSMGFR minus 10 amino acids from the N-terminus)
T2 construct: also called N-10 PSMGFR; PSMGFR N-10
T2 peptide: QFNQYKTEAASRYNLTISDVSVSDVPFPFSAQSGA
Text: as §1

[3] = molecular target: T3, C-10 peptide (PSMGFR minus 10 amino acids from the C-terminus)
T3 construct: also called C-10 PSMGFR; PSMGFR C-10
T3 peptide: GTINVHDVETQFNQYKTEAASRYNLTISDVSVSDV
Text: as §1

B1: humanized MN-E6 scFv-Fc (Fc fusion)
chain: DAAQPAEVQLVESGGGLVKPGGSLRLSCAASGFTFSRYGMSWVRQAPGKRLEWVSTISGGGTYIYYPDSVKGRFTISRDNAKNTLYLQMNSLRAEDTAVYYCTRDNYGRNYDYGMDYWGQGTLVTVSSGGGGSGGGGSGGGGSEIVLTQSPATLSLSPGERATLTCSATSSVSYIHWYQQRPGQSPRLLIYSTSNLASGIPARFSGSGSGSDYTLTISSLEPEDFAVYYCQQRSSSPFTFGSGTKVEIK[letters of human IgG1 Fc left out]
notes: also called huMN-E6 scFv-Fc; hMN-E6 scFv-Fc
B1: binds [1]; binds [2]; no binding [3].
